# Measured values as given in the supplement of paper PMC8728848.
# The other results are listed elsewhere or left out.
# Key:
# Assay in all cases: glycan array binding signal (z-score within array); higher = stronger binding
# Settings in all cases: glycan notation: IUPAC condensed, linker removed
# [1] = target: Gal(b1-4)GlcNAc(b1-3)Gal(b1-4)GlcNAc(b1-3)Gal(b1-4)GlcNAc
# Procedure, shortened: (§1)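 The binding signal is a Z-score computed within each array. Data were drawn from 3228 arrays in the Consortium for Functional Glycomics database, restricted to those with a known protein sequence. Scores were averaged over arrays of the same protein sequence at different concentrations or buffers, and over linkers, and negative values can be taken as non-binding.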
# [2] = target: Gal(b1-4)GlcNAc(b1-3)Gal(b1-4)[Fuc(a1-3)]GlcNAc(b1-3)Gal(b1-4)[Fuc(a1-3)]GlcNAc
# Procedure, shortened: as §1
# [3] = target: Gal(b1-4)GlcNAc(b1-3)GalNAc
# Procedure, shortened: as §1
# [4] = target: Gal(b1-4)GlcNAc(b1-3)[Gal(b1-4)GlcNAc(b1-6)]Gal(b1-4)GlcNAc
# Procedure, shortened: as §1
# [5] = target: Gal(b1-4)GlcNAc(b1-3)[GlcNAc(b1-6)]Gal(b1-4)GlcNAc
# Procedure, shortened: as §1
# [6] = target: Gal(b1-4)GlcNAc(b1-6)Gal(b1-4)GlcNAc
# Procedure, shortened: as §1
# [7] = target: Gal(b1-4)GlcNAc(b1-6)Gal(b1-4)GlcNAc(b1-6)GalNAc
# Procedure, shortened: as §1
# [8] = target: Gal(b1-4)GlcNAc(b1-6)GalNAc
# Procedure, shortened: as §1
# [9] = target: Gal(b1-4)GlcNAc(b1-6)[Gal(b1-3)]GalNAc
# Procedure, shortened: as §1
# Gal3S(b1-3)GalNAc = target: Gal3S(b1-3)GalNAc
# Procedure, shortened: as §1
# Gal3S(b1-3)GlcNAc = target: Gal3S(b1-3)GlcNAc
# Procedure, shortened: as §1
# [10] = target: Gal3S(b1-3)[Fuc(a1-4)]GlcNAc
# Procedure, shortened: as §1
# Gal3S(b1-4)Glc = target: Gal3S(b1-4)Glc
# Procedure, shortened: as §1
# Gal3S(b1-4)Glc6S = target: Gal3S(b1-4)Glc6S
# Procedure, shortened: as §1
# Gal3S(b1-4)GlcNAc = target: Gal3S(b1-4)GlcNAc
# Procedure, shortened: as §1
# Gal3S(b1-4)GlcNAc6S = target: Gal3S(b1-4)GlcNAc6S
# Procedure, shortened: as §1
# [11] = target: Gal3S(b1-4)[Fuc(a1-3)]Glc
# Procedure, shortened: as §1
# Gal3S4S(b1-4)GlcNAc = target: Gal3S4S(b1-4)GlcNAc
# Procedure, shortened: as §1
# Gal3S6S(b1-4)GlcNAc = target: Gal3S6S(b1-4)GlcNAc
# Procedure, shortened: as §1
# Gal3S6S(b1-4)GlcNAc6S = target: Gal3S6S(b1-4)GlcNAc6S
# Procedure, shortened: as §1
# Gal4S(b1-4)GlcNAc = target: Gal4S(b1-4)GlcNAc
# Procedure, shortened: as §1
# Gal4S6S(b1-4)GlcNAc = target: Gal4S6S(b1-4)GlcNAc
# Procedure, shortened: as §1
# Gal6S(b1-4)Glc = target: Gal6S(b1-4)Glc
# Procedure, shortened: as §1
# Gal6S(b1-4)Glc6S = target: Gal6S(b1-4)Glc6S
# Procedure, shortened: as §1
# Gal6S(b1-4)GlcNAc = target: Gal6S(b1-4)GlcNAc
# Procedure, shortened: as §1
# Gal6S(b1-4)GlcNAc6S = target: Gal6S(b1-4)GlcNAc6S
# Procedure, shortened: as §1
# GalNAc(a1-3)Gal = target: GalNAc(a1-3)Gal
# Procedure, shortened: as §1
# GalNAc(a1-3)GalNAc = target: GalNAc(a1-3)GalNAc
# Procedure, shortened: as §1
# GalNAc(b1-3)Gal = target: GalNAc(b1-3)Gal
# Procedure, shortened: as §1
# [12] = target: GalNAc(b1-3)Gal(a1-4)Gal(b1-4)GlcNAc
# Procedure, shortened: as §1
binder,measurement,setting,value
"MCI4 (Toxoplasma gondii), Q9XZH7 (protein) MRASLPVHLVVCTQLSAVWFGVAKAHGGHRLEPHVPGFLQGFTDITPAGDDVSANVTSSEPAKLDLSCVHSDNKGSRAPTIGEPVPDVSLEQCAAQCKAVDGCTHFTYNDDSKMCHVKEGKPDLYDLTGGKTASRSCDRSCFEQHVSYEGAPDVMTAMVTSQSADCQAACAADPSCEIFTYNEHDQKCTFKGRGFSAFKERGVLGVTSGPKQFCDEGGKLTQEEMEDQISGCIQLSDVGSMTADLEEPMEADSVGACMERCRCDGRCTHFTFNDNTRMCYLKGDKMQLYSSPGDRTGPKSCDSSCFSNGVSYVDDPATDVETVFEISHPIYCQVICAANPLCTVFQWYASEAKCVVKRKGFYKHRKTGVTGVTVGPREFCDFGGSIRDREEADAVGSDDGLNAEATMANSPDFHDEVECVHTGNIGSKAQTIGEVKRASSLSECRARCQAEKECSHYTYNVKSGLCYPKRGKPQFYKYLGDMTGSRTCDTSCLRRGVDYSQGPEVGKPWYSTLPTDCQVACDAEDACLVFTWDSATSRCYLIGSGFSAHRRNDVDGVVSGPYTFCDNGENLQVLEAKDTE",glycan array binding signal (z-score),[1],-0.215
same,glycan array binding signal (z-score),[2],-0.212
same,glycan array binding signal (z-score),[3],-0.182
same,glycan array binding signal (z-score),[4],7.5
same,glycan array binding signal (z-score),[5],-0.214
same,glycan array binding signal (z-score),[6],-0.212
same,glycan array binding signal (z-score),[7],-0.204
same,glycan array binding signal (z-score),[8],-0.201
same,glycan array binding signal (z-score),[9],5.16
same,glycan array binding signal (z-score),Gal3S(b1-3)GalNAc,-0.192
same,glycan array binding signal (z-score),Gal3S(b1-3)GlcNAc,-0.22
same,glycan array binding signal (z-score),[10],-0.206
same,glycan array binding signal (z-score),Gal3S(b1-4)Glc,-0.168
same,glycan array binding signal (z-score),Gal3S(b1-4)Glc6S,-0.217
same,glycan array binding signal (z-score),Gal3S(b1-4)GlcNAc,-0.207
same,glycan array binding signal (z-score),Gal3S(b1-4)GlcNAc6S,-0.193
same,glycan array binding signal (z-score),[11],-0.213
same,glycan array binding signal (z-score),Gal3S4S(b1-4)GlcNAc,-0.217
same,glycan array binding signal (z-score),Gal3S6S(b1-4)GlcNAc,-0.217
same,glycan array binding signal (z-score),Gal3S6S(b1-4)GlcNAc6S,-0.228
same,glycan array binding signal (z-score),Gal4S(b1-4)GlcNAc,-0.201
same,glycan array binding signal (z-score),Gal4S6S(b1-4)GlcNAc,-0.165
same,glycan array binding signal (z-score),Gal6S(b1-4)Glc,-0.181
same,glycan array binding signal (z-score),Gal6S(b1-4)Glc6S,-0.206
same,glycan array binding signal (z-score),Gal6S(b1-4)GlcNAc,-0.198
same,glycan array binding signal (z-score),Gal6S(b1-4)GlcNAc6S,-0.205
same,glycan array binding signal (z-score),GalNAc(a1-3)Gal,-0.141
same,glycan array binding signal (z-score),GalNAc(a1-3)GalNAc,-0.226
same,glycan array binding signal (z-score),GalNAc(b1-3)Gal,-0.201
same,glycan array binding signal (z-score),[12],-0.194
